These results are taken from the supplement of paper PMC12067230.

The data scatter; read single values as rough.
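Also: [psi-pin-] Saccharomyces cerevisiae expressing SupN fusions, induced by 100 µM Cu2SO4, selected 7 d at 30 °C without adenine and uracil, scored by deep sequencing of output versus input.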

The nature of the first data set: amyloid nucleation score relative to library mode (yeast Sup35 reporter selection) (log enrichment difference); higher = more amyloid nucleation; sequences are the first 22 residues of the Bri2 peptide extended by up to 12 random residues. As to conditions: random library (experiment): 1;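 active = nucleation score significantly above 0 at FDR 0.05; inactive = not significantly above 0 or absent from output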. As for the experimental part:
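Random C-terminal extensions of the 22-aa Bri2 peptide by 12 NNK codons; premature stops give shorter extensions. Peptides were fused to the Sup35 nucleation domain in S. cerevisiae [psi-pin-] and selected on -ADE-URA plates for 7 d at 30 °C. The nucleation score is log(output/input), centred to the mode of each of 3 independent libraries (1 input, 3 technical output replicates), with duplicates merged. Sequences absent from the output ('random_non_nuc') were imputed with the library mode value, so they are given as censored (<). Nucleators are scores significantly >0 at FDR 0.05.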
EASNCFAIRHFENKFAVETLICAA: the amyloid nucleation score entry was “inactive”.

EASNCFAIRHFENKFAVETLICAAALGGEWVRER displayed an amyloid nucleation score of 2.95.

Sequence EASNCFAIRHFENKFAVETLICAAANYKRMRDEW had an amyloid nucleation score of 1.01.

EASNCFAIRHFENKFAVETLICAAATSR: the amyloid nucleation score result was “inactive”.

With EASNCFAIRHFENKFAVETLICAAAVRSVWAGGA, the amyloid nucleation score result is “inactive”.

EASNCFAIRHFENKFAVETLICAAAVVVLAETRE gave an amyloid nucleation score of 7.98.

For EASNCFAIRHFENKFAVETLICAAEACHSWSRWH, the amyloid nucleation score result was “inactive”.

As for EASNCFAIRHFENKFAVETLICAAGATATRPARW, the amyloid nucleation score result is “inactive”.

In the case of EASNCFAIRHFENKFAVETLICAAKVEASEVFGR, the amyloid nucleation score entry was “inactive”.

Consider EASNCFAIRHFENKFAVETLICAAMVCRIQQGRA, for which the amyloid nucleation score is 3.5.

Take EASNCFAIRHFENKFAVETLICAAN: the amyloid nucleation score result was “inactive”.

Consider EASNCFAIRHFENKFAVETLICAANETSV, for which the amyloid nucleation score entry is “inactive”.

Regarding EASNCFAIRHFENKFAVETLICAAP, the amyloid nucleation score result was “inactive”.

With EASNCFAIRHFENKFAVETLICAAPCTLIMISAG, the amyloid nucleation score result was “inactive”.

For EASNCFAIRHFENKFAVETLICAAPGQQDGEILW, the amyloid nucleation score is 2.98.

As for EASNCFAIRHFENKFAVETLICAAPKVMECGVLS, the amyloid nucleation score result was “inactive”.

Turning to EASNCFAIRHFENKFAVETLICAAQMVQRNIRAM, the amyloid nucleation score result was “inactive”.

With EASNCFAIRHFENKFAVETLICAAQSEYVPVASG, the amyloid nucleation score result is “inactive”.

With EASNCFAIRHFENKFAVETLICAARADRGGQVPR, the amyloid nucleation score result was “inactive”.

With EASNCFAIRHFENKFAVETLICAARRSQTAVVRE, the amyloid nucleation score result was “inactive”.

For EASNCFAIRHFENKFAVETLICAARVAWGHGHVE, the amyloid nucleation score came to 1.97.

On to EASNCFAIRHFENKFAVETLICAARVGATVIGGS, for which the amyloid nucleation score entry was “inactive”.

For EASNCFAIRHFENKFAVETLICAASKAGTVEWRR, the amyloid nucleation score entry was “inactive”.

In the case of EASNCFAIRHFENKFAVETLICAAVWTSARSVRG, the amyloid nucleation score result is “inactive”.

As to EASNCFAIRHFENKFAVETLICAAWASGDWVEEW, the amyloid nucleation score entry is “inactive”.

EASNCFAIRHFENKFAVETLICAAYRYTAHVARW: the amyloid nucleation score result was “inactive”.

With EASNCFAIRHFENKFAVETLICAAYVRRQSLCCF, the amyloid nucleation score is 0.458.

The data set is the same for the next values; noted with them: random library (experiment): 2.
In turn, EASNCFAIRHFENKFAVETLICAAEWSMCINMKN gave an amyloid nucleation score of -0.631.

Consider EASNCFAIRHFENKFAVETLICAAFLQLWEGIC, for which the amyloid nucleation score result was “inactive”.

For the sequence EASNCFAIRHFENKFAVETLICAC, the amyloid nucleation score entry is “inactive”.

Still in this data set, the particulars now being: random library (experiment): 3.
As to EASNCFAIRHFENKFAVETLICAADACIMNCWIE, the amyloid nucleation score amounted to 6.4.

As for EASNCFAIRHFENKFAVETLICAAEVHA, the amyloid nucleation score result is “inactive”.

Sequence EASNCFAIRHFENKFAVETLICAAFASPVSAGST returned an amyloid nucleation score of 1.43.

Turning to EASNCFAIRHFENKFAVETLICAAFAYCAGHTFA, the amyloid nucleation score entry was “inactive”.

In the case of EASNCFAIRHFENKFAVETLICAAFGWAANNWPG, the amyloid nucleation score came out at 3.88.

For EASNCFAIRHFENKFAVETLICAAPMSVCVWNAK, the amyloid nucleation score came out at 8.74.

Regarding EASNCFAIRHFENKFAVETLICAARV, the amyloid nucleation score entry was “inactive”.

Turning to EASNCFAIRHFENKFAVETLICAASMYWECKVPG, the amyloid nucleation score result is “inactive”.

Regarding EASNCFAIRHFENKFAVETLICAASVARMVYVLR, the amyloid nucleation score result was “inactive”.

As to EASNCFAIRHFENKFAVETLICAAVVGYETPVAV, the amyloid nucleation score result is “inactive”.

Regarding EASNCFAIRHFENKFAVETLICAAWRFTPKGEWV, the amyloid nucleation score result is “inactive”.
